Measurements from PubChem BioAssay AID1671193 (National Center for Advancing Translational Sciences (NCATS), 2021).
Among all 150,000 compounds or so, about 180 (0.12%) were called active. Inconclusive means that the source gave no clear call. Such entries were picked first, then a sample of the others. Calls come from the whole dose curve; as a rule, active = well fitted cell-killing curve with a large enough effect; inconclusive = small, poorly fitted or top-dose-only effect, or effect the other way; inactive = flat fitted curve, though single readings scatter. Where the call is inconclusive, the potency comes from a doubtful curve fit.

assay: GF-AFC viability counterscreen for inhibitors of alpha-synuclein gene (SNCA) expression; conditions: HEK-293-SNCA-luc viability, GF-AFC fluorescence, 24 h; activity change, negative = cytotoxicity: at 57.1 µM (top of the series) unless noted; note: nearly all actives have a fitted effect of over 30% in size;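 for activity change, negative = cytotoxicity: 0% = DMSO-treated cells and -100% = medium-only wells without cells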
Summary of the method: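 HEK-293-SNCA-luc cells (1500/well) plated 24 h, then exposed 24 h to a dilution series; GF-AFC added 30 min at 37C, fluorescence 405/540 nm; normalised to medium-only and DMSO wells, Hill fit.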
Potency is the fitted concentration of half-maximal effect; tags give direction and shape of the fitted curve.

**Q.** For `Cc1nn2c(c1-c1ccccc1-c1ccccc1)N(C(=O)COc1ccccc1)CCC2`, which “activity change, negative = cytotoxicity” value is on record?
**A.** inactive: -9.31% [at 87.6 µM]

**Q.** Which Potency does the source give for `Cc1ccc(CNC(=O)Cn2ncc3c([nH]c4ccc(C)cc43)c2=O)cc1` here?
**A.** inconclusive: 39.8 µM [cytotoxic, partial curve, poor fit]

**Q.** Which Potency does the source give for `O=C(c1ccc(Cn2ccnc2)o1)N1CCCn2nc(CO)cc2C1` here?
**A.** inconclusive: 20 µM [cytotoxic, single point]

**Q.** With `O=C(NCc1ccc(C(F)(F)F)cc1)C1CCCN(Cc2cccc(-c3cccs3)c2)C1` (stereo unspecified) as the molecule, how does the Potency read?
**A.** inconclusive: 22.4 µM [cytotoxic, partial curve, poor fit]

**Q.** Which Potency does the source give for `C=CCO[C@@H]1C[C@H]2C(=O)Nc3ccc(-c4ccc(F)cc4F)cc3C(=O)N2C1` here?
**A.** inconclusive: 35.5 µM [cytotoxic, partial curve, poor fit]

**Q.** For `CCn1c(CN2CCCCC2)nc2cc(NC(=O)c3ccccc3[N+](=O)[O-])ccc21`, which Potency is on record?
**A.** inconclusive: 8.91 µM [cytotoxic, full curve, poor fit]

**Q.** Which activity change, negative = cytotoxicity does the source give for `COc1ccc(CNC(=O)C2CCN(C(=O)c3ccc(-c4ccccc4OC)cc3)CC2)cc1` here?
**A.** inconclusive: 10.2% [at 12.5 µM]

**Q.** Which “activity change, negative = cytotoxicity” value does the source give for `COCCCn1c(=O)c(C(=O)NCCc2ccccc2)nc2cccnc21` here?
**A.** inactive: -2.03%

**Q.** With `Cn1nc(C2CCCN2)c2c(C(=O)NCc3ccncc3)cc(C3CC3)nc21` (stereo unspecified) as the molecule, how does the “activity change, negative = cytotoxicity” value read?
**A.** inactive: 7.34%

**Q.** Which activity change, negative = cytotoxicity does the source give for `COCCOC1CCOC2(CCN(C(=O)c3ccc(F)cc3)CC2)C1` (stereo unspecified) here?
**A.** inactive: 1.08% [at 12.5 µM]

**Q.** With `CC(NC(=O)C1CCN(c2nccc(Nc3ccccc3Cl)n2)CC1)c1ccc(F)cc1` (stereo unspecified) as the molecule, how does the “activity change, negative = cytotoxicity” value read?
**A.** inactive: -29.7%

**Q.** Which “activity change, negative = cytotoxicity” value does the source give for `O=C(NCc1ccccc1F)C1CCCCN1Cc1ccc(-c2ccsc2)cc1` (stereo unspecified) here?
**A.** inactive: 20.5%

**Q.** For `Cc1cccc(N2Cc3c(NCCCN4CCCCC4)ncnc3N(C)CC2=O)c1`, which “activity change, negative = cytotoxicity” value is on record?
**A.** inactive: 6.15%

**Q.** Which Potency does the source give for `N#CCCn1c(=O)c(-c2cccs2)nc2cnc(Oc3cccc(Cl)c3)nc21` here?
**A.** inconclusive: 7.08 µM [rising, single point]

**Q.** With `COc1cccc(C(=O)N2CC(Oc3ccccc3-c3nc(-c4cnccn4)no3)C2)c1` as the molecule, how does the Potency read?
**A.** inconclusive: 8.91 µM [cytotoxic, full curve, poor fit]

**Q.** For `CC(=O)N1CCC(N2CC(Oc3cccc(C(=O)NCC4CC4)c3)C2)CC1`, which Potency is on record?
**A.** inconclusive: 0.708 µM [cytotoxic, full curve, poor fit]

**Q.** For `CC1=C[C@@H](CNC(=O)NC2CCCCC2)[C@H](C(C)C)C[C@H]1Cc1nc2c(C)cccc2[nH]1`, which “activity change, negative = cytotoxicity” value is on record?
**A.** inactive: -26.9%

**Q.** Which Potency does the source give for `CN1C[C@H](C(=O)Nc2cccc(F)c2)C[C@H]1c1cccc(C(F)(F)F)c1` here?
**A.** inconclusive: 31.6 µM [cytotoxic, single point]

**Q.** Which Potency does the source give for `CC1=C[C@@H](CNCc2cccnc2)[C@H](C(C)C)C[C@H]1Cc1nnc(-c2ccc([N+](=O)[O-])cc2)o1` here?
**A.** inconclusive: 35.5 µM [cytotoxic, single point]

**Q.** Which “activity change, negative = cytotoxicity” value does the source give for `COc1ccccc1-c1nnc2ccc(C(=O)NCc3ccc(F)c(F)c3)cn12` here?
**A.** inactive: 2.32%

**Q.** For `COc1ccc(NC(=O)C(c2ccc(C)cc2)N(C)C(=O)Cc2cccs2)cc1` (stereo unspecified), which Potency is on record?
**A.** inconclusive: 2.82 µM [cytotoxic, full curve, poor fit]

**Q.** For `Cc1onc(C(=O)N2CCC(CCOc3ccc(F)cc3)C2)c1Cn1cc(Cl)cn1` (stereo unspecified), which “activity change, negative = cytotoxicity” value is on record?
**A.** inactive: -13.2%

**Q.** Which Potency does the source give for `CCC(C(=O)Nc1ccccc1C(=O)OC)n1nc(C)c2c(C)n(-c3ccc(C)cc3)nc2c1=O` (stereo unspecified) here?
**A.** inconclusive: 39.8 µM [cytotoxic, single point]

**Q.** For `O=C(NCc1cccnc1N1CCOCC1)c1n[nH]c2c1CCCC2`, which “activity change, negative = cytotoxicity” value is on record?
**A.** inactive: -6.2%

**Q.** For `CCc1ccc(Nc2nc(-c3ccccc3F)no2)cc1`, which “activity change, negative = cytotoxicity” value is on record?
**A.** inactive: -24.5%

**Q.** With `O=C(c1ccc(Cl)nc1)N1CCCC(C(=O)N2CCC(c3nc4ccncc4[nH]3)C2)C1` (stereo unspecified) as the molecule, how does the “activity change, negative = cytotoxicity” value read?
**A.** inactive: 11.5%

**Q.** With `COc1ccc(C(=O)NCC(=O)N2CCCCCCNC(=O)CC2c2ccccc2)c(OC)n1` (stereo unspecified) as the molecule, how does the Potency read?
**A.** inconclusive: 39.8 µM [cytotoxic, single point]

**Q.** Which Potency does the source give for `CCOC(=O)C1(Cc2ccccc2F)CCCN(C(=O)c2ccc3c(c2)OCCO3)C1` (stereo unspecified) here?
**A.** inconclusive: 7.08 µM [cytotoxic, partial curve]

**Q.** For `COc1cccc(OCCSc2nc3ccccc3n2CC(=O)N2CCCCC2)c1`, which Potency is on record?
**A.** inconclusive: 7.94 µM [cytotoxic, partial curve]

**Q.** With `CC(=O)NO` as the molecule, how does the “activity change, negative = cytotoxicity” value read?
**A.** inactive: -16% [at 23.9 µM]

**Q.** With `Cc1cc(C[C@@H]2COC[C@@H]2NC(=O)CCc2c(C)nc3ncnn3c2C)on1` as the molecule, how does the “activity change, negative = cytotoxicity” value read?
**A.** inactive: -1.61%

**Q.** With `COc1ccccc1C(=O)N1CCC2(CC1)COc1ccccc1NC2=O` as the molecule, how does the “activity change, negative = cytotoxicity” value read?
**A.** inactive: 5.65%

**Q.** For `O=S(=O)(Nc1nc2n(n1)C(c1ccc(F)cc1)C=C(c1ccccc1)N2)c1ccc(Cl)cc1` (stereo unspecified), which Potency is on record?
**A.** inconclusive: 22.4 µM [rising, partial curve]

**Q.** With `Cc1ccc(-c2c(C(=O)NCc3ccc(Cl)cc3)nc3sccn23)cc1` as the molecule, how does the Potency read?
**A.** inconclusive: 3.98 µM [cytotoxic, single point]

**Q.** With `COc1cccc(-c2ccc3c(N)c(C(=O)NCc4ccc(Cl)cc4)sc3n2)c1` as the molecule, how does the Potency read?
**A.** inconclusive: 25.1 µM [rising, partial curve]

**Q.** With `COCC[C@]1(O)CCN(Cc2cc(F)ccc2-n2cccn2)C[C@H]1C` as the molecule, how does the “activity change, negative = cytotoxicity” value read?
**A.** inactive: -14.4%

**Q.** Which Potency does the source give for `O=c1[nH]c(C2CCCN(Cc3ccc(-c4ccccc4)cc3)C2)nc2ccc(F)cc12` (stereo unspecified) here?
**A.** inconclusive: 39.8 µM [cytotoxic, single point]

**Q.** Which “activity change, negative = cytotoxicity” value does the source give for `CC(C)Sc1ncc(Cl)c(C(=O)Nc2nnc(C(C)C)s2)n1` here?
**A.** inactive: 9.58%

**Q.** With `COc1ccc(OC)c(NC(=O)CN2C(=O)c3ccccc3Sc3ccc(C(=O)N4CCCC4)cc32)c1` as the molecule, how does the “activity change, negative = cytotoxicity” value read?
**A.** inactive: -16%

**Q.** With `c1ccc(-c2nc(NCc3cc4n(n3)CCCNC4)c3ccccc3n2)cc1` as the molecule, how does the “activity change, negative = cytotoxicity” value read?
**A.** inactive: -20.1%

**Q.** Which Potency does the source give for `COc1ccccc1NC(=O)Cn1c(=O)n(Cc2ccco2)c(=O)c2cccnc21` here?
**A.** inconclusive: 6.31 µM [cytotoxic, full curve, poor fit]

**Q.** For `O=C(NCc1ccccc1)N1Cc2[nH]cnc2C[C@H]1c1nc(-c2ccc3c(c2)OCO3)no1`, which Potency is on record?
**A.** inconclusive: 10 µM [cytotoxic, partial curve, poor fit]

**Q.** For `COC(=O)N1CCC2(CCCN(Cc3nccs3)C2)CC1`, which Potency is on record?
**A.** inconclusive: 39.8 µM [cytotoxic, single point]

**Q.** For `COc1ccc(C(=O)NC2CCN(c3cc(-c4ccc(Cl)cc4)[nH]n3)C2)cc1OC` (stereo unspecified), which “activity change, negative = cytotoxicity” value is on record?
**A.** inactive: -3.85%

**Q.** Which Potency does the source give for `Cc1ccc2c(c1)c1c(c(=O)n(-c3ccccc3C)c(=O)n1CC(=O)NCc1ccccc1)n2C` here?
**A.** inconclusive: 1.58 µM [cytotoxic, partial curve, poor fit]

**Q.** Which Potency does the source give for `COc1ccc(CC(=O)NCc2ccc3c(c2)CCN3C(=O)c2ccc(Cl)cc2)cc1OC` here?
**A.** inconclusive: 28.2 µM [cytotoxic, partial curve, poor fit]

**Q.** With `O=c1cc(-c2ccccc2)c2cc(Cl)c3c(c2o1)CN(Cc1ccccc1)CO3` as the molecule, how does the Potency read?
**A.** inconclusive: 3.55 µM [rising, full curve]

**Q.** With `Fc1ccc(CN2CCn3c(nnc3C3CCCNC3)C2)cc1` (stereo unspecified) as the molecule, how does the Potency read?
**A.** inconclusive: 31.6 µM [cytotoxic, single point]

**Q.** With `CCS(=O)(=O)c1ncc(Cl)c(C(=O)N2CCN(c3cccc(Cl)c3)CC2)n1` as the molecule, how does the Potency read?
**A.** active: 3.55 µM

**Q.** Which Potency does the source give for `COc1ccc(OCC(=O)N2CCC(Cc3nc(-c4ccc(F)cc4)no3)CC2)cc1` here?
**A.** inconclusive: 17.8 µM [cytotoxic, partial curve, poor fit]

**Q.** With `Cc1cc(C)n(CC(=O)N2CCC(c3nc(CCOc4ccc(F)cc4)no3)C2)n1` (stereo unspecified) as the molecule, how does the activity change, negative = cytotoxicity read?
**A.** inactive: -6.63% [at 12.5 µM]

**Q.** For `Cc1cc(Cl)ccc1NC(=O)c1cnc(-c2ccccc2)nc1-c1ccncc1`, which “activity change, negative = cytotoxicity” value is on record?
**A.** inactive: -12.7%

**Q.** With `CCC(=O)Nc1ccc(S(=O)(=O)NCc2ccc3c(c2)CCN3C(=O)c2ccc(C)cc2)cc1` as the molecule, how does the Potency read?
**A.** inconclusive: 14.1 µM [cytotoxic, partial curve, poor fit]

**Q.** For `CCN(CC)C(=O)c1sc(NC(=O)C(C)Sc2nc(-c3ccccc3)cc(C(F)(F)F)n2)c(C(=O)OC)c1C` (stereo unspecified), which Potency is on record?
**A.** inconclusive: 39.8 µM [cytotoxic, single point]

**Q.** Which Potency does the source give for `C=CC(=O)Nc1cccc(Nc2nc(Nc3ccc(N4CCN(C(C)=O)CC4)cc3OC)ncc2C(F)(F)F)c1` here?
**A.** inconclusive: 5.97 µM [cytotoxic, partial curve]

**Q.** With `COc1nccnc1NC1CCN(C(=O)COc2ccccc2C)CC1` as the molecule, how does the “activity change, negative = cytotoxicity” value read?
**A.** inactive: -0.752%

**Q.** Which Potency does the source give for `Cc1ccc(C2NC(=O)N(CC(=O)Nc3ccc(F)cc3)C3=C2C(=O)OC3)cc1` (stereo unspecified) here?
**A.** inconclusive: 3.98 µM [cytotoxic, single point]

**Q.** With `Cc1nn(-c2ccc(C(C)C)cc2)c(C)c1[C@@H]1C=C[C@@H](NCc2ccc(F)cc2)C1` as the molecule, how does the Potency read?
**A.** inconclusive: 28.2 µM [cytotoxic, single point]

**Q.** For `Cc1ccc([C@H]2Nc3ccc(S(=O)(=O)Nc4cccc(Cl)c4C)cc3[C@H]3C=CC[C@H]32)cc1`, which “activity change, negative = cytotoxicity” value is on record?
**A.** inactive: -18.6%

**Q.** With `CCCn1c(=O)n(-c2cc(Cl)c(OC)cc2OC)c(=O)c2c3c(sc21)CN(C(C)=O)CC3` as the molecule, how does the Potency read?
**A.** inconclusive: 39.8 µM [cytotoxic, single point]

**Q.** With `O=C(Cc1c[nH]c2ncc(-c3ccc(Oc4ccccc4)cc3)cc12)NCc1cccnc1` as the molecule, how does the Potency read?
**A.** inconclusive: 56.2 µM [cytotoxic, single point]

**Q.** For `COc1cccc(-c2ccc(CN3CCCC(NC(=O)NC4CCCC4)C3)cc2)c1` (stereo unspecified), which Potency is on record?
**A.** inconclusive: 28.2 µM [cytotoxic, partial curve, poor fit]

**Q.** With `COc1ccc(NC(=O)Cn2cc(S(=O)(=O)c3ccc(C)cc3)c(=O)c3ccccc32)cc1OC` as the molecule, how does the Potency read?
**A.** inconclusive: 20 µM [cytotoxic, single point]

**Q.** Which “activity change, negative = cytotoxicity” value does the source give for `O=C(NCCc1ccccc1)N1CCC(Cc2nncn2CC2CC2)CC1` here?
**A.** inactive: -5.49%

**Q.** Which Potency does the source give for `CC(Oc1ccc2[nH]nc(/C=C/c3cnn(CCO)c3)c2c1)c1c(Cl)cncc1Cl` (stereo unspecified) here?
**A.** inconclusive: 7.52 µM [cytotoxic, partial curve]

**Q.** With `Cc1cccc(C(=O)NCC(c2ccc3c(c2)OCO3)N2CCN(c3ccccc3F)CC2)c1` (stereo unspecified) as the molecule, how does the “activity change, negative = cytotoxicity” value read?
**A.** inactive: -32.1%
